{"source": "PubChem BioAssay AID1347165", "about": "(National Center for Advancing Translational Sciences (NCATS), 2019)", "note": "Among all 220,000 compounds or so, about 5,700 (2.6%) were called active. Inconclusive results, whose numbers are uncertain, are shown with a selection of clear calls. The call rests on the fitted dose curve; in most records, active means well fitted inhibition curve with a large enough effect; inconclusive means small, poorly fitted or top-dose-only effect; inactive means no such curve, though single readings can be large or run the other way. Potencies beside an inconclusive call are fits to weak or partial responses and may not hold up. Potency means the concentration at half of the fitted maximal effect; tags describe the fitted curve by direction and shape.", "data": [{"target": "Lysine-specific demethylase 5B (Homo sapiens) (UniProt Q9UGL1)", "sequence (Q9UGL1 whole entry, looked up)": "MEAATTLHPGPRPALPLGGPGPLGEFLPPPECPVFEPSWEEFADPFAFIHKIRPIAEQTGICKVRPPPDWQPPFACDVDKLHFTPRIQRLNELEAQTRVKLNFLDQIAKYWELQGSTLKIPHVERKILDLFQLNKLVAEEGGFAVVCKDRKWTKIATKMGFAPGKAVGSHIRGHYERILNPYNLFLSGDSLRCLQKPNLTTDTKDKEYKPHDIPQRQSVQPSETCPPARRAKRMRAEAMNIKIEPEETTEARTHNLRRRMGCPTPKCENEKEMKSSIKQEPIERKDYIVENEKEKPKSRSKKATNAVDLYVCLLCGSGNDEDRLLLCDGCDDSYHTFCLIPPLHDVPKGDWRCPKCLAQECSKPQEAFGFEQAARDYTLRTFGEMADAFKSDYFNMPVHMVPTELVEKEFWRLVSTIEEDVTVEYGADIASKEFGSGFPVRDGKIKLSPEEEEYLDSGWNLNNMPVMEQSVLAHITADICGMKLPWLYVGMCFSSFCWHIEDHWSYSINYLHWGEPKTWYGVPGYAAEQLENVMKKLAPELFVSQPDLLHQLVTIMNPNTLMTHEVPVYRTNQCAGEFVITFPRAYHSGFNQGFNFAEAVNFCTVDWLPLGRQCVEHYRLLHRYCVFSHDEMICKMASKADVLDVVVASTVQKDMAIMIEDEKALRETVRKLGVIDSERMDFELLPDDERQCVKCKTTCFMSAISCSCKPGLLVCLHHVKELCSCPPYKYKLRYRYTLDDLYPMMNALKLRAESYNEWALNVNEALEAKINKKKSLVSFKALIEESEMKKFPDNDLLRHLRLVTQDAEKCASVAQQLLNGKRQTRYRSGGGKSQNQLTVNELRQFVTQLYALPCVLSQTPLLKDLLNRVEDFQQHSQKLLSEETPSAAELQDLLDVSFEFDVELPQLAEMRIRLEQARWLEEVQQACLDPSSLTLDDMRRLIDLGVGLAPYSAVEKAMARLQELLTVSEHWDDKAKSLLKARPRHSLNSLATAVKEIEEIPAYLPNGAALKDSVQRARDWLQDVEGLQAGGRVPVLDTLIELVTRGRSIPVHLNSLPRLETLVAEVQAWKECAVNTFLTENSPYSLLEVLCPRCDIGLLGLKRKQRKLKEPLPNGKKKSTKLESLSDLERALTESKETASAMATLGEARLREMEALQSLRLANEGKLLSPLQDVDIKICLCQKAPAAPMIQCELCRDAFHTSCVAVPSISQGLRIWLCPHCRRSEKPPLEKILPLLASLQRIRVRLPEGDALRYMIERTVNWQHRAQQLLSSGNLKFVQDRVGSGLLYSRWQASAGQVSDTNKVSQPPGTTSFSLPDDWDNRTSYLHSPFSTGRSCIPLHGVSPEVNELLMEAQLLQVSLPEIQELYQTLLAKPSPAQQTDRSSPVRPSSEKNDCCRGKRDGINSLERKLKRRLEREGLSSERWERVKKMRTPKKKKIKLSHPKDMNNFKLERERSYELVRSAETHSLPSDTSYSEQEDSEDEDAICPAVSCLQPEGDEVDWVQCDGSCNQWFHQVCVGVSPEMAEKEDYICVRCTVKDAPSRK", "test": "Primary screen for KDM5B Histone Demethylases FDH-coupled qHTS; further: nearly all actives have a fitted effect of over 70% in size", "conditions": "FDH-coupled NADH fluorescence (FDH is formaldehyde dehydrogenase); series mostly up to 57.7 µM", "procedure,_shortened": "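KDM5BΔAP (200 nM final) in 50 mM HEPES pH 7.5, 0.01% Tween-20 was preincubated 10 min at RT with compound over a concentration range. Substrate mix (H3K4me3 12.5 µM, α-KG 25 µM, Fe²⁺, ascorbate, NAD⁺, FDH) was added, and NADH fluorescence change over 30 min gave dose-response curves.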", "values": [{"smiles": "Cc1nn2c(c1-c1ccccc1N1CCCC1)N(C(=O)c1ccc(Oc3ccccc3)cc1)CCC2", "Potency": "inconclusive: 35.5 µM [inhibitor, partial curve, poor fit]"}, {"smiles": "Cc1ccc(NC(=O)C2CCCN(c3nnc(C)c4c(C)n(-c5ccccc5)nc34)C2)c(Cl)c1", "note": "(stereo not drawn)", "Potency": "inconclusive: 2.51 µM [inhibitor, full curve, poor fit]"}, {"smiles": "CCCNC(=O)CSc1nnc(N2CCCCC2)n1-c1ccc(C)cc1", "Potency": "inactive"}, {"smiles": "COC(=O)c1ccccc1-c1cn(C)c2ccccc2c1=O", "Potency": "inconclusive: 31.6 µM [inhibitor, partial curve, poor fit]"}, {"smiles": "O=[N+]([O-])c1cc(-c2nc(-c3ccccc3)no2)ccc1N1CCCCC1", "Potency": "inactive"}, {"smiles": "COc1ccccc1Oc1c(C)oc2cc(O)ccc2c1=O", "Potency": "inconclusive: 22.4 µM [inhibitor, partial curve, poor fit]"}, {"smiles": "O=C(c1cc(F)ccc1F)N1CCCN(CCc2ccccc2)c2ccccc21", "Potency": "inconclusive: 15.8 µM [inhibitor, partial curve, poor fit]"}, {"smiles": "Cc1cc(C)c(CNC(=O)c2nc(-c3cncnc3)cc3c2ccn3C(C)C)c(=O)[nH]1", "Potency": "active: 31.6 µM"}, {"smiles": "COc1cccc(C(=O)N2CCN(C(C(=O)O)c3cc(C)cc(C)c3)CC2)c1", "note": "(stereo not drawn)", "Potency": "inactive"}, {"smiles": "CN[C@H]1C[C@H]2c3[nH]c4cccc(-c5ccccc5)c4c3CCN2C[C@H]1[C@H](C)O", "Potency": "inconclusive: 20 µM [inhibitor, partial curve, poor fit]"}, {"smiles": "COc1cc(NC(=O)CCn2ccn3nc4c(c3c2=O)CCCC4)cc(OC)c1", "Potency": "inactive"}, {"smiles": "Cc1ccccc1NC(=O)Cn1c(SCC(=O)Nc2ccc(F)cc2)nc2ccccc21", "Potency": "inconclusive: 17.8 µM [inhibitor, partial curve, poor fit]"}, {"smiles": "COc1ccc(-c2ccc3c(c2)C(=O)N2CCN(C(=O)CC4(CC(=O)O)CCCC4)C[C@H]2C(=O)N3)cc1", "Potency": "inconclusive: 25.1 µM [inhibitor, single point]"}, {"smiles": "CC(=O)N1CCC(c2nnc3n2CCNC3)CC1", "Potency": "active: 112 µM"}, {"smiles": "CCCc1nn(C)c2c(=O)[nH]c(-c3cc(S(=O)(=O)Nc4ccccc4)ccc3OCC)nc12", "Potency": "inconclusive: 35.5 µM [inhibitor, partial curve, poor fit]"}, {"smiles": "Cc1ccc2[nH]c(=O)c(-c3noc(CCCC(=O)NCC(C)C)n3)cc2c1", "Potency": "inactive"}, {"smiles": "COc1cc(CNC(=O)c2ccc3c(c2)N(C)C(=O)C2CCCCN32)cc(OC)c1OC", "note": "(stereo not drawn)", "Potency": "inconclusive: 17.8 µM [inhibitor, partial curve, poor fit]"}, {"smiles": "Cc1ccccc1NC(=O)CSc1nc2ccccc2o1", "Potency": "inactive"}]}]}
